Test results taken from PubChem BioAssay AID1159614 (National Center for Advancing Translational Sciences (NCATS), 2016).
The campaign covered roughly 45,000 compounds. About 65 (0.1%) were called active. Calls follow the shape of the dose curve; as a rule, active = well fitted activation curve with a large enough effect; inconclusive = small, poorly fitted or top-dose-only effect; inactive = no such curve, though single readings can be large or run the other way. Some of the results follow.

These compounds were tested against Galactocerebrosidase (Homo sapiens) (UniProt P54803) (assay: A Novel Cell-Based Assay to Identify Small Molecules for B -Galactocerebrosidase). Conditions: 145M-Twi-hGALC-G270D cells (Twitcher mouse brain line with human GALC G270D), HMU-beta-Gal fluorescence, 48 h; series mostly up to 57.5 µM; activation: at the top concentration.
UniProt P54803, sequence (P54803 whole entry, looked up): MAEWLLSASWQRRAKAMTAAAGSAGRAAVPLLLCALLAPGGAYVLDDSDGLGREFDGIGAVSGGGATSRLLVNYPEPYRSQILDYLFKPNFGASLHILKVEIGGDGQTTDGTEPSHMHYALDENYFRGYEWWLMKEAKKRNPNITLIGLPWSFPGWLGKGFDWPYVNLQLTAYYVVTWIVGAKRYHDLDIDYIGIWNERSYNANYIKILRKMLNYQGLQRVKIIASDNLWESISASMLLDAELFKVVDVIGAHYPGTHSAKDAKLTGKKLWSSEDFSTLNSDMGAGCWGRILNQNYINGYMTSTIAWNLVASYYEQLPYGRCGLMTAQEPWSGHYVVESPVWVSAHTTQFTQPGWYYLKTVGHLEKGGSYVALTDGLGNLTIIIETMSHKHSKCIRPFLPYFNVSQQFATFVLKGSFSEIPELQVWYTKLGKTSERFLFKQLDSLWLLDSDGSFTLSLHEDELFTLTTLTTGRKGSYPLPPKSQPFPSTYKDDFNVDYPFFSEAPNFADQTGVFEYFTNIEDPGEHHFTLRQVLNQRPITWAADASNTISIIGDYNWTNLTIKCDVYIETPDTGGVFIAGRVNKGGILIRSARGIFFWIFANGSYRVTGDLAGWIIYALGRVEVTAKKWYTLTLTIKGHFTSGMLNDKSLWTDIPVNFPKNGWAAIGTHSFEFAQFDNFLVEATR
Procedure, shortened: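 Mutant human GALC (G270D), stably expressed in a Twitcher mouse brain cell line lacking endogenous GALC, is measured in live-treated cells via 6-hexadecanoylamino-4-methylumbelliferyl-β-galactoside hydrolysis (0.1 mM final, pH 5.2) with fluorescent detection.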
Also: 0% is about no effect; nearly all actives have a fitted effect of over 65% in size.

activation, inactive:
CCn1ccc2c(OCC(=O)NCc3ccccc3)cccc2c1=O -11%
Cc1c(Cl)cccc1NC(=O)CSc1nc2ncccc2o1 -3.29%
CC1Cn2c(C(=O)NCc3cccc(Br)c3)cc3cccc(c32)S1 (configuration not stated) -14.1%
CC(C)(C)C1CCc2nc(NC(=O)c3ccc([N+](=O)[O-])cc3)sc2C1 (configuration not stated) 2.66%
COc1ccc2oc(-c3ccc(C)c(NC(=O)c4ccc(-c5ccccc5[N+](=O)[O-])o4)c3)nc2c1 -8.47%
Cc1cccc(-c2nc3c(cnn3-c3ccccc3)c(=O)n2-c2ccc(Br)cc2)c1 -18.5%
Cc1ccc(C(=O)O)cc1NC1(c2ccccc2)C(=O)c2ccccc2C1=O -18.1%
O=C(CCSCc1cccc(Cl)c1)NCc1ccc(F)cc1Cl -7.42%
Cc1ccc2[nH]c(CSc3nnc(NC(=O)c4ccccc4F)s3)cc(=O)c2c1 -18%
CCc1ccccc1NC(=O)c1sc2nc(C)cc(COC)c2c1N -16.2%
COc1ccccc1CNC(=O)C1CCCN(c2nnc(C)c3c(C)n(-c4ccccc4)nc23)C1 (configuration not stated) -13.7%
CC(=O)OCC1=C(C(=O)O)N2C(=O)[C@@H](NC(=O)Cc3cccs3)[C@H]2SC1 -16.5%
Cc1cccc(CN2C(=O)N(c3ccc(C(C)C)cc3)S(=O)(=O)c3ccccc32)c1 -16%
O=C(COc1ccccc1F)Nc1ccc2oc(-c3cccc(Cl)c3)nc2c1 -23.2%
Cc1ccc(-c2ccc(=O)n(CC(=O)Nc3ccc(C)cc3Cl)n2)cc1 -13.2%
COc1ccccc1-c1nc(SCC(=O)NCc2ccc(C)cc2)c2c(=O)n(C)c(=O)n(C)c2n1 -11.5%
COc1ccc(C(=O)Nc2ccc3oc(-c4cccnc4)nc3c2)cc1 -14.5%
Clc1cccc(N2CCN(c3nc4ccccc4n4nnnc34)CC2)c1 -5.3%
COc1ccc(C2C=C(c3ccccc3)Nc3nc(NC(=O)c4cccc([N+](=O)[O-])c4)nn32)cc1 (configuration not stated) -2.77%
COc1cccc(/C=C/c2nc(C#N)c(NCCc3ccccc3)o2)c1 -18.7%
Cc1c(C(=O)NCc2ccccc2)sc2nc3n(c(=O)c12)CCCCC3 -15.8%
CCOc1ccc(NC(=O)C2CC(=O)NC(=Nc3ccc(Cl)c(Cl)c3)S2)cc1 (configuration not stated) -8.05%
CCOC(=O)c1ccc(NC(=O)C2CCCN(c3ncnc4onc(-c5ccc(F)cc5)c34)C2)cc1 (configuration not stated) -9.04%
COc1cccc(CNC(=O)c2sc3nc(C)cc(C)c3c2-n2cccc2)c1OC 0.089%
Cc1ccc(OCC(=O)Nc2cccc(-c3nc4ccccc4s3)c2)cc1 -9.1%
COCCNC(=O)CCn1c(=O)c2cc(OC)c(OC)cc2n(CC(=O)Nc2ccc(Cl)cc2F)c1=O -16.3%
Cc1ccc(-c2n[nH]c3c2C(c2ccc(C(C)(C)C)cc2)NC3=O)cc1 (configuration not stated) 5.76%
Cc1nn(S(=O)(=O)c2ccc(C(C)(C)C)cc2)c(C)c1S(=O)(=O)N1CCCCCC1 -6.36%
Cc1ccc(NC(=O)c2oc3ccc(S(=O)(=O)N4CCC5(CC4)OCCO5)cc3c2C)cc1C 8.48%
CCOC(=O)COc1ccc(CC)cc1C(=O)c1ccn2nc(-c3ccccc3)cc2n1 -7.27%
Cc1ccc(Cl)cc1N1CCN(C(=O)c2ccc(NC(=O)c3nsc4ccccc34)cc2)CC1 -3.8%
COC(=O)C(Cc1c[nH]c2ccccc12)NC(=O)COc1cccc(C)c1 (configuration not stated) -8.88%
COC(=O)c1sccc1S(=O)(=O)N1CCN(c2cc(Cl)ccc2C)CC1 -6.95%
COc1cccc(Nc2ccc3cc(S(=O)(=O)N4CCC(C)CC4)ccc3n2)c1 0.771%
CCCCC(=O)NCc1nc2cccnc2n1Cc1ccc(OC)cc1 -10.8%
CCCOc1cccc(C(=O)Nc2cccc(-c3nc4ncccc4o3)c2C)c1 -3.79%
CCC1CN(C(=O)N2CCC(C(=O)NCc3ccc(N(C)C)cc3)CC2)c2ccccc2O1 (configuration not stated) 7.05%
CCOc1ccc(-n2c(/C=C/c3cccc(F)c3)nc3cc(OC)c(OC)cc3c2=O)cc1 -14.4%
COc1ccc(-c2oc3ncn4nc(-c5ccccc5O)nc4c3c2-c2ccc(OC)cc2)cc1 -13.7%
COc1ccc(-c2cc(-c3ccc(F)cc3)nc3c2COc2ccc(F)cc2-3)cc1 -15.4%
Cc1ccccc1-c1nc2scc(CCNS(=O)(=O)c3ccccc3)n2n1 -33.1%
Cc1nn2c(=O)cc(COC(=O)c3cccc(NC(=O)CCc4ccccc4)c3)nc2s1 -4.36%
Cc1c(C(=O)NCc2ccccc2Cl)sc2nc3n(c(=O)c12)CCCCC3 -48.4%
CC(=O)c1cccc(NC(=O)C2CCN(C(=O)c3cnn(-c4ccccc4)c3-n3cccc3)CC2)c1 -8.78%
CCn1cc2nc(SCC(=O)Nc3ccc(OC)c(OC)c3)n(Cc3ccc(Cl)cc3)c(=O)c2n1 -13.4%
Cc1cn2c(=O)cc(COC(=O)c3cccc(NC(=O)c4ccc(C(C)(C)C)cc4)c3)nc2s1 -0.464%
CCOc1ccc(NC(=O)CN2C(=O)CC(C)Sc3ccccc32)cc1 (configuration not stated) 1.78%
O=C1CN(C(=O)COc2ccc(Cl)cc2)C(c2ccccc2)c2cc(Br)ccc2N1 (configuration not stated) -6.43%
CC(C)(C)OC(=O)N1CCC(c2c(C(=O)Nc3ccc4c(c3)OCCO4)cnn2-c2ccc(Cl)cc2)CC1 -21.8%
O=C(NCc1ccccc1)C1CCCN(S(=O)(=O)c2cccc3nsnc23)C1 (configuration not stated) -12.5%
COc1cc2c(=O)n(Cc3ccccc3Cl)c(=O)n(CC(=O)Nc3ccc(C)c(C)c3)c2cc1OC -11.4%
CC(C)Oc1ccccc1C1C=C(C(=O)O)Nc2ncnn21 (configuration not stated) -16.9%
COc1ccc(CCn2c3c(c(=O)[nH]c2=O)C(NC(=O)c2ccccc2F)(C(F)(F)F)C(=O)N3)cc1OC (configuration not stated) -13.3%
COc1ccc(C)cc1NC(=O)C1CCN(S(=O)(=O)c2ccc3[nH]c(=O)oc3c2)CC1 -16.1%
Cc1cccc(C(=O)Nc2cc(-c3nc4cccnc4s3)ccc2C)c1 -10.6%
Cc1ccc2c(c1)C(Cc1ccccc1F)C(=O)N2 (configuration not stated) -15.4%
CCn1cc(CCC(=O)NCc2ccc(C)cc2)c2ccccc21 -6.76%
COc1ccc(CCNC(=O)C(CC(C)C)N2Cc3ccccc3C2=O)c(OC)c1OC (configuration not stated) -3.21%
O=C(CSc1oc(-c2ccccc2)nc1S(=O)(=O)c1ccc(Cl)cc1)Nc1ccc(F)cc1 -11.6%
CC1CCC(Nc2nc3c(-c4ccc(Cl)cc4)nnn3c3ccccc23)CC1 (configuration not stated) -6.32%
Cc1ccc(Cn2cc(CCC(=O)NC3CCC(C)CC3)c3ccccc32)cc1 (configuration not stated) -8.35%
CC(=O)c1ccc(NC(=O)CN2C(=O)CCc3ccccc32)cc1 -17.9%
CC(=O)/C=C/C=C1/C2CCC(C2)C1(C)C (configuration not stated) -11.9%
Cc1ccc2occ(CC(=O)N(Cc3ccccc3Cl)C3CCS(=O)(=O)C3)c2c1 (configuration not stated) -11.6%
CCOC(=O)c1cccc(NC(=O)NCc2cccn2Cc2ccccc2)c1 -1.02%
Cn1c(=O)oc2cc(S(=O)(=O)N3CCCC(C(=O)NCCc4ccc(Cl)cc4)C3)ccc21 (configuration not stated) -15.1%
COc1ccccc1CNS(=O)(=O)c1ccc2c(c1)NC(=O)C(C)C(=O)N2 (configuration not stated) -6.75%
CC(=O)Nc1ccc(/C=C/c2nc(-c3ccccc3O)n(-c3ccccc3)n2)cc1 -11.9%
O=C(NCc1ccccc1)c1cc2sccc2n1Cc1ccc(Cl)cc1 -17.3%
COC(=O)c1ccccc1NC(=O)Cn1c(CCC(=O)O)ccc1-c1cccs1 -10.5%
CCCCSc1nc(-c2ccc(OC)cc2)ccc1C#N -11.7%
Cc1ccc(-c2nc(-c3cc4c([nH]c3=O)CC(C)(C)CC4=O)sc2C)cc1 -7.55%
O=C(Cn1cc(SCc2ccc(C(F)(F)F)cc2)c2ccccc21)N1CCOCC1 -12.8%
Cc1cccc(-c2nc(C)c(CCNC(=O)C(=O)Nc3cccc(Cl)c3C)s2)c1 -19.3%
O=C1CCC(N2C(=O)c3ccccc3C2=O)C(=O)N1 (configuration not stated) -19.7%
CCOc1ccc(N(C)C(=O)CS(=O)(=O)c2cccc3nsnc23)cc1 -20.9%
COC(=O)CSc1ncc2c(n1)-c1ccccc1N(Cc1ccccc1C)S2(=O)=O -5.01%
O=C1NCCN1CCN1CCC(c2cn(-c3ccc(F)cc3)c3ccc(Cl)cc23)CC1 -27.4%
CCC(=O)N1CCc2cc(S(=O)(=O)CCC(=O)Nc3ccc(OC(F)(F)F)cc3)ccc21 -14.4%
COc1ccc(CC(=O)Nc2sc3c(c2C(=O)Nc2cccc(Cl)c2)CCCCC3)cc1 -13.3%
COc1ccc2nc3oc(C(=O)N4CCN(c5cc(C)ccc5C)CC4)cc3cc2c1 4.17%
CC(C)Oc1ccc(CNC(=O)CCCN2C(=O)CCn3nc(-c4cccn4C)cc32)cc1 -9.84%
COc1ccccc1N1CCN(C(=O)C(CCSC)NS(=O)(=O)c2ccc3c(c2)oc(=O)n3C)CC1 (configuration not stated) 6.24%
CCc1ccc(NCc2cc3ccc(OC)cc3n(CC(=O)Nc3ccc(F)cc3F)c2=O)cc1 -16.9%
CCC(=O)N1c2ccccc2CC1C(=O)N1CCN(c2cccc(Cl)c2)CC1 (configuration not stated) -12.7%
O=C(c1ccco1)n1nc(-c2ccccc2)nc1NCc1ccc(Cl)cc1 -1.89%
Cc1nn(-c2ccccc2)c2c1N(CCCC(=O)NCc1ccc(N(C)C)cc1)C(=O)CS2 -17.3%
COc1cccc(CNS(=O)(=O)c2ccc3c(c2)CCN3C(=O)C2CCC2)c1 -2.39%
O=C(Nc1ccc(F)cc1)N1CCN(c2ccccc2F)CC1 -11.4%
Cc1nn2c(=O)cc(COC(=O)c3ccco3)nc2s1 -1.34%
COc1cccc(CNCCSc2nnnn2C)c1OCc1ccccc1Cl -3.82%
Cc1cc(Cl)ccc1OCC(=O)Nc1c(Cl)ccc2nsnc12 5.61%
O=C(NCc1cccs1)c1ccc(Cn2c(SCc3ccccc3)nc3cccnc32)cc1 -6.39%
O=C(Nc1c(C(=O)N2CCN(c3ccccc3)CC2)oc2ccccc12)c1ccc(Br)o1 -20.7%
CC(C)(C)CC(C)(C)c1ccc(O)c(-n2nc3ccccc3n2)c1 -15.8%
Cc1ccc(C)c(S(=O)(=O)c2nnn3c2nc(Nc2ccc(C)c(C)c2)c2sccc23)c1 -10.5%
O=C(CC(c1cccs1)N1Cc2ccccc2C1=O)Nc1ccc(F)c(F)c1 (configuration not stated) -14.6%
